# Results as given in article PMC6212790.
# The list shows a part of the results. At the low end of the ranking the order means little.
# Target: T1, GST-Rok (full length) (UniProt O34857)
# T1 sequence: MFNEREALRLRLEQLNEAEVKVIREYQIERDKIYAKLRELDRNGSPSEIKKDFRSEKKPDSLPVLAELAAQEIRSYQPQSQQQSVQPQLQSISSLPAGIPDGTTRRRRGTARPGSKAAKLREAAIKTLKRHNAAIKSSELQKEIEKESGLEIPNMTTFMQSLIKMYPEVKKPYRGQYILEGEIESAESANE
# Assay: protein binding microarray;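 further: rank score from −0.5 (least bound) to 0.5 (best bound)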
# Conditions: Rok is a gene silencer of Bacillus subtilis; high values mean tight binding; most listed sequences are background and not binding sites; double strand, one strand shown
row,Sequence,binding signal
1,GACCAAGA,0.0064 E-score
2,CAATATGG,0.13 E-score
3,CTCGCAAC,-0.0684 E-score
4,CGTCCCGA,-0.0109 E-score
5,ACCTGCAC,-0.17 E-score
6,CAATCCTA,0.176 E-score
7,ATTACAAA,0.154 E-score
8,TCGACGAA,-0.0545 E-score
9,AATTGCAA,-0.0247 E-score
10,ATGCATTG,0.0725 E-score
11,GATAGGAA,0.225 E-score
12,AAAAGCCC,-0.201 E-score
13,CGGAAAAC,0.0816 E-score
14,GGCTGAAA,-0.0118 E-score
15,AATCTCGG,0.126 E-score
16,CGGTAGAC,-0.0961 E-score
17,CTATACAC,0.216 E-score
18,GGCCACCA,-0.174 E-score
19,AAGGTAGC,0.133 E-score
20,AGCTTACC,0.0191 E-score
21,ATCCGCGA,0.145 E-score
22,ACACCTCG,0.0961 E-score
23,CTAATTTA,0.286 E-score
24,TGAACCAA,-0.12 E-score
25,GGCAGTCA,-0.227 E-score

row,Sequence,binding signal
1,CTCCCCCC,-0.418 E-score
2,GGATGCCA,-0.177 E-score
3,GTTCCGTA,0.198 E-score
4,GGCGCTAC,0.0181 E-score
5,ACCTGGTA,0.195 E-score
6,AGAAAATG,0.18 E-score
7,ACACACCC,-0.0612 E-score
8,CCCAGTAC,0.0342 E-score
9,AGCTTGGC,-0.211 E-score
10,AAAATCGA,0.175 E-score
11,CACCTCCC,-0.312 E-score
12,CAGCCGCC,-0.326 E-score
13,ATCAGTGA,-0.142 E-score
14,CGGGTGAA,-0.102 E-score
15,AACAGATG,0.0185 E-score
16,AGACTCAG,-0.0707 E-score
17,AAACAGTG,0.000896 E-score
18,GGGAATAA,-0.0556 E-score
19,ATTGTACG,0.266 E-score
20,CGATAGCA,0.0701 E-score
21,ATAATTAT,0.268 E-score
22,GAACAAAA,-0.0504 E-score
23,AAAGTAAT,0.226 E-score
24,GTGCGTTA,0.0713 E-score
25,AAAACGAC,-0.0861 E-score

row,Sequence,binding signal
1,ACATCGTA,0.128 E-score
2,GAAAATTA,0.246 E-score
3,TAGCCTGA,-0.0671 E-score
4,AGGCCGTA,-0.152 E-score
5,ATCATACC,0.175 E-score
6,AAGGAGAG,-0.225 E-score
7,CAGGGCAC,-0.171 E-score
8,GTTCTGTA,0.247 E-score
9,ACCGAGAC,-0.13 E-score
10,GCGGTATA,0.347 E-score
11,AATTGGAC,0.203 E-score
12,CCTAAGAC,-0.19 E-score
13,CGGGGACG,-0.267 E-score
14,GAGATAGA,0.174 E-score
15,ATTCGCCC,-0.0875 E-score
16,CGGACACA,0.0219 E-score
17,ACGAAGAA,0.133 E-score
18,AGTAGCGG,0.0902 E-score
19,ATATGGGC,-0.194 E-score
20,CAGCCACC,-0.265 E-score
21,CAATTCCA,0.149 E-score
22,GAACCCGC,-0.266 E-score
23,CCCAAAGA,-0.227 E-score
24,TAAGAAAA,0.148 E-score
25,ACACCGTA,0.0364 E-score

row,Sequence,binding signal
1,ACGCTAGT,0.0908 E-score
2,GATCGAGA,-0.0825 E-score
3,GGAAGCTA,0.285 E-score
4,GACACCGC,-0.354 E-score
5,CCAAGCGG,-0.0754 E-score
6,GAGCGAAC,-0.155 E-score
7,AATTATTA,0.197 E-score
8,GAGAGCTA,0.0199 E-score
9,CTTGCTCA,-0.00949 E-score
10,GCATTCAC,-0.0649 E-score
11,CAGTAGGG,0.0232 E-score
12,ATAATTCC,0.213 E-score
13,AGATAATG,0.225 E-score
14,GTACGTGA,0.0943 E-score
15,TATGGCGA,-0.0118 E-score
16,CAAGTTCC,-0.0399 E-score
17,AAGCATGA,0.00535 E-score
18,AGAGTGTG,-0.0475 E-score
19,AACCGTCC,-0.00539 E-score
20,GTAGTCAA,0.21 E-score
21,CGCGTTAG,0.07 E-score
22,GCACATTA,0.206 E-score
23,CCCTAAGC,-0.164 E-score
24,ACGAGTTG,0.149 E-score
25,CATGTATC,0.181 E-score

row,Sequence,binding signal
1,CGTTTGAG,0.024 E-score
2,AGGTCTTC,-0.16 E-score
3,AGCCATCA,-0.0405 E-score
4,ACTCTATC,0.058 E-score
5,ACTGGCGG,-0.0567 E-score
6,CGAATGGC,-0.16 E-score
7,ATACGCAG,0.0832 E-score
8,AGGCCTGC,-0.247 E-score
9,TCCACACA,0.0753 E-score
10,ACGCCTAC,-0.0847 E-score
11,CGTTGCAG,0.0152 E-score
12,GGCGGAGA,-0.0868 E-score
13,ATAATCCA,0.197 E-score
14,ATTGGTGA,0.0777 E-score
15,AACTCACC,-0.145 E-score
16,ACCCCCGT,-0.152 E-score
17,GCACTTAA,-0.0625 E-score
18,AAAGACAT,-0.0102 E-score
19,AACTTGCA,0.156 E-score
20,GCCAGGAA,-0.112 E-score
21,AGAATATA,0.296 E-score
22,TCCGTGCA,0.035 E-score
23,GCCATCGA,-0.0559 E-score
24,CATGGTTC,-0.143 E-score
25,AAACGAAG,-0.0542 E-score

row,Sequence,binding signal
1,CTTTGGGA,-0.188 E-score
2,GCTGGGAC,-0.239 E-score
3,CGGAACAA,-0.0511 E-score
4,CAAGGCTG,-0.107 E-score
5,ACCAACCC,-0.142 E-score
6,TGGCGACA,-0.153 E-score
7,CTTAAAAA,-0.118 E-score
8,CGAGCTCC,-0.255 E-score
9,CGGGCATC,-0.152 E-score
10,ATGCTCGG,-0.128 E-score
11,AACAAACC,-0.256 E-score
12,GATCAGGA,-0.113 E-score
13,GATCCGCA,-0.245 E-score
14,ATCGCAAC,0.0204 E-score
15,CTATGGAG,-0.0809 E-score
16,CCTTGGAA,-0.0553 E-score
17,AGTATACT,0.338 E-score
18,CGATCACC,-0.23 E-score
19,CCACCTCC,-0.294 E-score
20,GAAAAGTC,-0.13 E-score
21,CCCAACAC,-0.0981 E-score
22,GGTCGACA,-0.133 E-score
23,CTGACCTA,0.153 E-score
24,AGGAGCTC,-0.0168 E-score
25,CAACCCGC,-0.0798 E-score

row,Sequence,binding signal
1,CCACCGAC,-0.206 E-score
2,TGAAAACA,0.168 E-score
3,TCTCGAAA,0.0858 E-score
4,GATATGAA,0.129 E-score
5,AGGCAGTC,-0.124 E-score
6,GATTCTCA,0.18 E-score
7,AAAGCAGG,-0.183 E-score
8,AGGAGAAT,0.184 E-score
9,CTGGGCGC,-0.259 E-score
10,TAGACGGA,-0.348 E-score
11,AGCCCCTG,-0.31 E-score
12,CGACGATA,0.172 E-score
13,AAATTGAG,0.0835 E-score
14,GATTAAAA,0.0318 E-score
15,ACAACAGC,-0.0896 E-score
16,CCATCGCG,-0.000623 E-score
17,GTCCTTAA,0.0408 E-score
18,CGAAAACC,-0.133 E-score
19,AGCTTCTA,0.178 E-score
20,TGCCAGAA,-0.0731 E-score
21,AGTGCATG,0.0224 E-score
22,CTGACATC,-0.0155 E-score
23,ACCAAACG,0.0234 E-score
24,ACTGGGGG,-0.314 E-score
25,ATCTATAC,0.207 E-score

row,Sequence,binding signal
1,ATACGGAG,0.0487 E-score
2,GGACGAAC,-0.121 E-score
3,CTAAAATA,0.262 E-score
4,CTGCCAAG,-0.0519 E-score
5,ATTAAATG,0.0625 E-score
6,GAGAAAGC,-0.0612 E-score
7,CAGACGGC,-0.0229 E-score
8,ACGATGAG,-0.00281 E-score
9,CACTACTG,-0.0214 E-score
10,ACCATAAA,0.114 E-score
11,GCCTTGCC,-0.443 E-score
12,GACCACCC,-0.299 E-score
13,CTCGCGCC,-0.266 E-score
14,CCATCGGG,-0.214 E-score
15,GCAGCCAC,-0.415 E-score
16,CACTCGGG,-0.226 E-score
17,AAACTGGG,-0.236 E-score
18,AATCAGAA,0.18 E-score
19,CCGAGGCG,-0.249 E-score
20,TGCACACA,0.0711 E-score
21,CCGCACCA,-0.082 E-score
22,ACAACTCC,-0.137 E-score
23,CAACTACA,0.18 E-score
24,GCTAATCC,-0.108 E-score
25,AGACTGGA,-0.123 E-score

row,Sequence,binding signal
1,GCCAAAGC,-0.357 E-score
2,ATGTCGGG,-0.205 E-score
3,CAGACACC,0.0269 E-score
4,AATTAGGA,-0.0566 E-score
5,ATTCCTCA,-0.0357 E-score
6,CTTACAGA,0.0495 E-score
7,CTGGGGAA,-0.162 E-score
8,TACGGAGA,0.0328 E-score
9,AGAGCATA,-0.179 E-score
10,ATGCGGCA,0.0193 E-score
11,CATTCAGC,-0.0865 E-score
12,GGAGCAAC,-0.104 E-score
13,GCAGAGCA,-0.134 E-score
14,GCGACATA,0.0389 E-score
15,CAGCATGC,-0.093 E-score
16,CCCCCCTA,-0.35 E-score
17,ACTTACTG,0.207 E-score
18,CATAGTGA,0.0352 E-score
19,ATATAGAT,0.416 E-score
